Among all 110,000 compounds or so, about 230 (0.21%) showed an effect of 50% or more. The list shows a part of the results.
Target: DPAP1 (Plasmodium falciparum, UniProt Q8IIJ9)
Experiment: primary screen, percent inhibition; read by cleavage of a fluorogenic dipeptide substrate; higher = more effect of the substance
Design: species or system P. falciparum D10 trophozoite lysates; single well
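Note: 30 min substrate incubation versus DMSO and 10 µM JCP410 controls.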

Sequence of DPAP1 (Q8IIJ9 whole entry, looked up): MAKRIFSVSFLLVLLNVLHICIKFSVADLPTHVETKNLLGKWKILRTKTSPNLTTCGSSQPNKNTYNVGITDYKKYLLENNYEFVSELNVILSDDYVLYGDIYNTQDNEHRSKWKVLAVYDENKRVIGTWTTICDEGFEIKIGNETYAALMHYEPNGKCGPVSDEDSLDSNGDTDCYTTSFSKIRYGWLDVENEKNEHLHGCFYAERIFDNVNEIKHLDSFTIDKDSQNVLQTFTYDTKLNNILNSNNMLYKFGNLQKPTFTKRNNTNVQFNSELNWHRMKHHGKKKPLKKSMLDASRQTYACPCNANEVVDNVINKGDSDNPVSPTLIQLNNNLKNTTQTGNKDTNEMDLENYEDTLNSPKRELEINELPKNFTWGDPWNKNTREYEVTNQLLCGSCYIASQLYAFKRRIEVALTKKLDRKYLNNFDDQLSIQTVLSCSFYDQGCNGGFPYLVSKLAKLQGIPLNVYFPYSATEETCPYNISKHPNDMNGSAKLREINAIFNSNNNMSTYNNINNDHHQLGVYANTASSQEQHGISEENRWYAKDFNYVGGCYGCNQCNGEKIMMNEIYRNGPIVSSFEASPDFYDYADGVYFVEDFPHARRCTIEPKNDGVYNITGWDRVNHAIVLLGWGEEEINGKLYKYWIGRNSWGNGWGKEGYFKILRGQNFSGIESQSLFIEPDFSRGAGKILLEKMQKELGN

SMILES	% Inhibition @ 10 uM [%]
COc1ccc(CN2CCN(Cc3ccc(C)cc3)CC2)cc1OC	18.1
N#C/C(=C/C=C/c1ccccc1)c1nc(-c2ccc(Cl)c(Cl)c2)cs1	-2.6
COC(=O)N1CC(c2ccccc2)CC1=O (centres unmarked)	-2.36
COc1ccc2oc(=O)c(-c3csnn3)cc2c1	10
CCCOc1ccc(S(=O)(=O)N2CCN(c3ccccc3F)CC2)cc1	-4.02
O=C(Nc1cccc(Cl)c1)c1cccc(Br)c1	1.38
O=C(Cc1ccccc1)Nc1nonc1-c1ccccc1	-1.07
Cc1cc(C)c2nc(NCc3ccc(F)cc3)sc2c1	2.31
CCOC(=O)/C(C#N)=C\c1c(C)cc(C)cc1C	2.62
OC1CC(c2ccccc2)NC2(CCCCC2)C1 (centres unmarked)	3.79
CC(NC(=O)CNC(=S)N(Cc1ccccc1)Cc1cccnc1)c1ccccc1 (centres unmarked)	1.27
O=C1CCN(c2ccccc2Br)N1	-2.74
CC(C)C(NCc1c(Cl)cccc1Cl)C(=O)O (centres unmarked)	-1.99
COc1ccccc1NC(=O)Cn1nc(C(F)(F)F)cc1C1CC1	4.83
CC(=O)Nc1sc2c(c1C(=O)O)CC(C)(C)OC2	0.0539
CCN1CCN(C(=O)/C(=C/c2cccs2)NC(=O)c2ccccc2)CC1	4
Nc1nc(NC23CC4CC(CC(C4)C2)C3)nc(-c2cc(Cl)ccc2O)n1	-6.02
O=C(NCc1ccccc1Cl)C1CCCN1S(=O)(=O)c1ccc(-c2ccc(O)nn2)s1 (centres unmarked)	0.0065
Cc1ccc(N2C(=O)CC(N3CCN(C)CC3)C2=O)cc1 (centres unmarked)	2.01
COc1ccc2nc(C)cc(Nc3ccc(N4CCN(C)CC4)cc3)c2c1	5.16
Cc1cccc(OCCCC(=O)Nc2nnc(C(C)C)s2)c1	-4.93
CC(C)(C)C1CCc2c(sc(NC(=O)c3ccc(Br)o3)c2C(N)=O)C1 (centres unmarked)	-1.43

SMILES	% Inhibition @ 10 uM [%]
O=C(NC1CCc2ccccc21)c1cc2c(s1)CCC2 (centres unmarked)	-1.07
CCOC(=O)C1CCN(Cc2ccc(F)c(Br)c2)CC1	1.63
O=C1/C(=C/c2ccccc2)N=C(NCc2ccccc2)N1c1ccccc1	-5.23
CC1CCC(NC(=O)Cn2ncc3c4ccccc4n(C)c3c2=O)CC1 (centres unmarked)	-5.72
CS(=O)(=O)N(CC(=O)N1CCN(c2ccccc2)CC1)c1cccc2ccccc12	-11.7
Cc1ccccc1NC(=O)c1c(N)sc2c1CCC2	30.2
CC(=O)N1CCN(Cc2c(F)cccc2F)CC1	3.48
N#Cc1c(N)nc(SCC(=O)c2ccc(Br)cc2)c(C#N)c1-c1ccc(O)cc1	5.64
CN1C(=O)NC(=O)/C(=C/c2ccc(I)o2)C1=O	1.42
CC(c1ccccc1)N1C(=O)c2ccc(C(=O)c3ccc(C(=O)O)cc3)cc2C1=O (centres unmarked)	5.92
COc1ccccc1C(=O)Nc1ccc(-c2nc3cc(C)ccc3o2)cc1	-7.87
CCOC(=O)c1c(C)c(-c2ccccc2)n(CC(=O)N2CCC(C)CC2)c1C	7.84
Cc1nn(C)cc1CNC(=O)c1cc2nc(-c3ccc(Cl)cc3)cc(C(F)(F)F)n2n1	-8.33
CCN(CC)CCCOc1ccccc1Br	-1.64
CC(C)N1C(=O)/C(=C\c2ccccc2O)S/C1=N/c1ccccc1	43.5
CC1=C(C(=O)Nc2cccc(F)c2)C(c2ccsc2)C2=C(O)CC(C)(C)CC2=N1 (centres unmarked)	-2.64
COc1ccc(-c2noc(CC(=O)N3CCN(Cc4ccc5c(c4)OCO5)CC3)n2)cc1	5.34
CC1CC(C)CN(S(=O)(=O)N2CCCC(C(=O)NCCN3CCCC3)C2)C1 (centres unmarked)	0.514
Cc1nc(=O)c(-c2ccccc2)c(C)n1-c1cccc(C(=O)O)c1	-1.85
CCOc1cc(/C=C2/NC(=O)N(Cc3ccccc3F)C2=O)cc(Cl)c1OCC(=O)O	4.85
O=c1n(Cc2ccccc2)c2ccc(Cl)cc2n1Cc1ccccc1	-1.62
CCc1[nH]nc2c1C(c1ccc(OCc3ccccc3)c(OC)c1)C(C#N)=C(N)O2 (centres unmarked)	-0.99

SMILES	% Inhibition @ 10 uM [%]
CCCCc1nc2ccccc2n1Cc1ccccc1	2.73
COc1ccc(-c2cn3nc(N4CCC(C(=O)NC(C)C)CC4)sc3n2)cc1	3.21
CC(C)(C)NC(=O)CN1c2cccc3cccc(c23)S1(=O)=O	-2.54
COc1ccccc1NC(=O)C1=C(C)Nc2nc(CCCO)nn2C1c1cccc(F)c1 (centres unmarked)	-5.13
N#CC1(NC(=O)[C@H](CC2CCCCC2)NC(=O)c2cccc(-c3cccc(OC(F)(F)F)c3)c2)CCS(=O)(=O)CC1	0.079
O=C(c1cccc(C(F)(F)F)c1)N1CC(=O)N(CCc2ccccc2)C(=O)C1	16.4
O=C(O)c1sc(Cl)cc1/C=C\c1ccccc1	-2.45
CC(=O)NC(c1ccc(F)cc1)c1cccnc1 (centres unmarked)	-0.312
FC(F)(F)c1cc(-c2ccccc2)nc(N2CCN(Cc3ccccc3)CC2)n1	0.287
CCC(Cc1ccccc1)NC(=O)C1CCN(S(=O)(=O)c2c(C)n[nH]c2C)CC1 (centres unmarked)	-5.37
O=C(c1ccc(O)cc1)c1ccccc1O	16.3
Cc1cccc(OCCCCN2CCNCC2)c1	1.8
CC1CCCCC1NC(=O)C1(S(=O)(=O)c2ccc(Cl)cc2)CC1 (centres unmarked)	0.559
COc1ccc(-n2c(CCC(=O)O)ccc2-c2ccccc2)cc1	1.31
COc1ccc(-c2coc3cc(OCc4ccc(Br)cc4)cc(O)c3c2=O)cc1OC	-2.91
CCCCNC(=O)c1nn(C)c2c1COc1ccccc1-2	-1.72
O=C1NC(=O)/C(=C\c2cccn2-c2ccccc2)N1	-6.86
Cc1cccc(-n2c(C)cc(C(=O)C(=O)Nc3nccs3)c2C)c1C	-4.68
COc1ccc(OC)c(NC(=O)c2ccc(Br)o2)c1	-2.8
COc1cccc(C2C(C#N)=C(N)N(c3nc[nH]n3)C3=C2C(=O)CCC3)c1 (centres unmarked)	-3.16
COc1ccc(C(=O)CCN(C)C)cc1	3.82

From PMC6919601, “Identification of Plasmodium dipeptidyl aminopeptidase allosteric inhibitors by high throughput screening” (PLoS ONE, 2019)
